The record followed here is the supplement of paper PMC4604168 (melanoma cell lines).

Some test systems named below: WM115; WM1716; WM1745; WM3526; WM3619; WM451Lu.
Test in all cases: cell count relative to DMSO control; melanoma cells; higher = more viable cells
Details in all cases: library dose: low library concentration; 72 h

The other results are listed elsewhere or left out. Single values are uncertain, as repeats are few or missing.
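Note: cell number obtained by counting DAPI-stained nuclei in high-throughput microscope images with image analysis software, screen run in 1,536-well plates.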

Consider `Cc1cc(Nc2cc(N3CCN(C)CC3)nc(Sc3ccc(NC(=O)C4CC4)cc3)n2)n[nH]1` [Tozasertib] + N#Cc1c(O)c2c(-c3ccc(-c4ccccc4O)cc3)csc2[nH]c1=O [A769662] (first compound 0.006 µM, partner dose 2 µM), for which the cell count with WM115 was determined as 100%; with WM1716, 79.7%; in the experiment on WM1745, 74.4%; in the experiment with WM3526, 96.2%; with WM3619 it was 90.6%; in the experiment on WM451Lu, 106%.
For the compound `CC[C@]1(O)C[C@H]2CN(CCc3c([nH]c4ccccc34)[C@@](C(=O)OC)(c3cc4c(cc3OC)N(C=O)[C@H]3[C@@](O)(C(=O)OC)[C@H](OC(C)=O)[C@]5(CC)C=CCN6CC[C@]43[C@@H]65)C2)C1` [vincristine] + COc1cc(N2CCC(N3CCN(C)CC3)CC2)ccc1Nc1ncc(Cl)c(Nc2ccccc2S(=O)(=O)C(C)C)n1 [NVP-TAE684] (first compound 0.0001 µM, partner dose 0.08 µM), the cell count in the experiment on WM115 was determined as 39%; with WM1716 it was 45.1%; with WM1745 it was 79.8%; with WM3526, 63.1%; in the experiment on WM3619 it was 56.5%; in the experiment on WM451Lu, 51.9%.
Take `Cc1cc(Nc2cc(N3CCN(C)CC3)nc(Sc3ccc(NC(=O)C4CC4)cc3)n2)n[nH]1` [Tozasertib] + COc1cc2c(Oc3ccc4[nH]c(C)cc4c3F)ncnc2cc1OCCCN1CCCC1 [cediranib] (first compound 0.006 µM, partner dose 0.4 µM): the cell count in the experiment on WM115 came out at 88.8%; in the experiment with WM1716, 93.7%; in the experiment with WM1745, 81.9%; in the experiment with WM3526 it was 114%; with WM3619, 94.7%; with WM451Lu, 127%.
For the compound `N#CC[C@H](C1CCCC1)n1cc(-c2ncnc3[nH]ccc23)cn1` [ruxolitinib] + CC(C)C[C@H](NC(=O)[C@H](Cc1ccccc1)NC(=O)c1cnccn1)B(O)O [Bortezomib] (first compound 1 µM, partner dose 0.001 µM), the cell count turned out to be 112% with WM115; 88.3% in the experiment on WM1716; 90.5% in the experiment on WM1745; 102% with WM3526; 61.6% with WM3619; 96.3% in the experiment on WM451Lu.
As for `N#CC[C@H](C1CCCC1)n1cc(-c2ncnc3[nH]ccc23)cn1` [ruxolitinib] + O=C(O)[C@@H]1[O][Sb](=[O])([O][Sb]2(=[O])[O][C@H]([C@H](O)CO)[C@H](O)[C@H](C(=O)O)[O]2)[O][C@H]([C@H](O)CO)[C@@H]1O [stibogluconate] (first compound 1 µM, partner dose 2 µM), the cell count with WM115 came out at 99.4%; with WM1716, 92.8%; with WM1745 it was 96.8%; with WM3526, 108%; in the experiment with WM3619 it was 93.7%; with WM451Lu, 67.5%.
Turning to `N#CC[C@H](C1CCCC1)n1cc(-c2ncnc3[nH]ccc23)cn1` [ruxolitinib] + Cn1cnc2c(F)c(Nc3ccc(Br)cc3Cl)c(C(=O)NOCCO)cc21 [selumetinib] (first compound 1 µM, partner dose 0.015 µM), the cell count in the experiment with WM115 stood at 125%; with WM1716 it was 136%; with WM1745, 93%; in the experiment with WM3526 it was 106%; in the experiment on WM3619, 87.3%; in the experiment with WM451Lu, 108%.
As for `N#CC[C@H](C1CCCC1)n1cc(-c2ncnc3[nH]ccc23)cn1` [ruxolitinib] + COc1cc(N2CCC(N3CCN(C)CC3)CC2)ccc1Nc1ncc(Cl)c(Nc2ccccc2S(=O)(=O)C(C)C)n1 [NVP-TAE684] (first compound 1 µM, partner dose 0.08 µM), the cell count was 100% with WM115; 98.1% with WM1716; 87% with WM1745; 91.5% in the experiment with WM3526; 102% in the experiment on WM3619; 94% with WM451Lu.
As for `CC[C@]1(O)C[C@H]2CN(CCc3c([nH]c4ccccc34)[C@@](C(=O)OC)(c3cc4c(cc3OC)N(C=O)[C@H]3[C@@](O)(C(=O)OC)[C@H](OC(C)=O)[C@]5(CC)C=CCN6CC[C@]43[C@@H]65)C2)C1` [vincristine] + COc1ccc(C2=N[C@@H](c3ccc(Cl)cc3)[C@@H](c3ccc(Cl)cc3)N2C(=O)N2CCNC(=O)C2)c(OC(C)C)c1 [Nutlin-3] (first compound 0.0001 µM, partner dose 0.1 µM), the cell count was found to be 45.7% with WM115; 38.2% with WM1716; 69.2% in the experiment with WM1745; 58.5% in the experiment on WM3526; 42.9% in the experiment with WM3619; 52.8% in the experiment with WM451Lu.
For the compound `N#CC[C@H](C1CCCC1)n1cc(-c2ncnc3[nH]ccc23)cn1` [ruxolitinib] + O=C(O)c1ccc2c(c1)nc(Nc1cccc(Cl)c1)c1ccncc12 [CX4945] (first compound 1 µM, partner dose 0.4 µM), the cell count in the experiment with WM115 was determined as 114%; with WM1716 it was 102%; in the experiment on WM1745 it was 101%; with WM3526, 104%; in the experiment on WM3619, 76.3%; in the experiment with WM451Lu, 73.5%.
As for `Cc1cc(Nc2cc(N3CCN(C)CC3)nc(Sc3ccc(NC(=O)C4CC4)cc3)n2)n[nH]1` [Tozasertib] + Clc1ccc(Nc2nnc(Cc3ccncc3)c3ccccc23)cc1 [vatalanib] (first compound 0.006 µM, partner dose 2 µM), the cell count in the experiment with WM115 is 89.9%; with WM1716 it was 83.9%; in the experiment on WM1745, 84.2%; in the experiment on WM3526, 89.4%; with WM3619, 87.6%; in the experiment with WM451Lu it was 90.6%.
Take `N#CC[C@H](C1CCCC1)n1cc(-c2ncnc3[nH]ccc23)cn1` [ruxolitinib] + CC[C@]1(O)C[C@H]2CN(CCc3c([nH]c4ccccc34)[C@@](C(=O)OC)(c3cc4c(cc3OC)N(C=O)[C@H]3[C@@](O)(C(=O)OC)[C@H](OC(C)=O)[C@]5(CC)C=CCN6CC[C@]43[C@@H]65)C2)C1 [vincristine] (first compound 1 µM, partner dose 0.0001 µM): the cell count was determined as 95.4% in the experiment on WM115; 67.8% with WM1716; 94.1% in the experiment with WM1745; 90.5% with WM3526; 62.2% in the experiment on WM3619; 65.7% in the experiment on WM451Lu.
For the compound `Cc1cc(Nc2cc(N3CCN(C)CC3)nc(Sc3ccc(NC(=O)C4CC4)cc3)n2)n[nH]1` [Tozasertib] + CC(C)C[C@H](NC(=O)[C@H](Cc1ccccc1)NC(=O)c1cnccn1)B(O)O [Bortezomib] (first compound 0.006 µM, partner dose 0.001 µM), the cell count with WM115 was 88.4%; in the experiment with WM1716, 67.6%; with WM1745 it was 79.2%; in the experiment on WM3526, 86.1%; in the experiment on WM3619, 47.6%; with WM451Lu, 92.4%.
As for `CC[C@]1(O)C[C@H]2CN(CCc3c([nH]c4ccccc34)[C@@](C(=O)OC)(c3cc4c(cc3OC)N(C=O)[C@H]3[C@@](O)(C(=O)OC)[C@H](OC(C)=O)[C@]5(CC)C=CCN6CC[C@]43[C@@H]65)C2)C1` [vincristine] + Cn1sc(=O)n(Cc2ccccc2)c1=O [TDZD-8] (first compound 0.0001 µM, partner dose 0.4 µM), the cell count in the experiment with WM115 turned out to be 70.5%; in the experiment on WM1716, 48.7%; in the experiment with WM1745, 80.6%; in the experiment on WM3526 it was 103%; in the experiment on WM3619, 67.5%; in the experiment on WM451Lu it was 63.6%.
Turning to `Cc1cc(Nc2cc(N3CCN(C)CC3)nc(Sc3ccc(NC(=O)C4CC4)cc3)n2)n[nH]1` [Tozasertib] + CCCCCCCCCCCCCCCCCCOP(=O)([O-])OC1CC[N+](C)(C)CC1 [Perifosine] (first compound 0.006 µM, partner dose 0.4 µM), the cell count in the experiment with WM115 is 104%; in the experiment with WM1716, 97.2%; with WM1745, 106%; in the experiment on WM3526, 86%; in the experiment with WM3619, 87.8%; in the experiment with WM451Lu it was 101%.
As for `CC[C@]1(O)C[C@H]2CN(CCc3c([nH]c4ccccc34)[C@@](C(=O)OC)(c3cc4c(cc3OC)N(C=O)[C@H]3[C@@](O)(C(=O)OC)[C@H](OC(C)=O)[C@]5(CC)C=CCN6CC[C@]43[C@@H]65)C2)C1` [vincristine] + Nc1ncn([C@H]2C[C@H](O)[C@@H](CO)O2)c(=O)n1 [decitabine] (first compound 0.0001 µM, partner dose 0.1 µM), the cell count in the experiment with WM115 turned out to be 50.2%; in the experiment with WM1716, 50.2%; with WM1745 it was 94.5%; with WM3526, 63%; in the experiment with WM3619 it was 87.7%; in the experiment with WM451Lu, 57.9%.
In the case of `Cc1cc(Nc2cc(N3CCN(C)CC3)nc(Sc3ccc(NC(=O)C4CC4)cc3)n2)n[nH]1` [Tozasertib] + OCc1c[nH]c2ccccc12 [Indole-3-carbinol] (first compound 0.006 µM, partner dose 0.8 µM), the cell count in the experiment with WM115 was 88%; in the experiment on WM1716, 94.2%; in the experiment with WM1745, 89.2%; in the experiment with WM3526, 110%; in the experiment with WM3619, 84.6%; with WM451Lu, 96.1%.
As for `Cc1cc(Nc2cc(N3CCN(C)CC3)nc(Sc3ccc(NC(=O)C4CC4)cc3)n2)n[nH]1` [Tozasertib] + CO[C@@H]1[C@H](N(C)C(=O)c2ccccc2)C[C@H]2O[C@]1(C)n1c3ccccc3c3c4c(c5c6ccccc6n2c5c31)C(=O)NC4 [Midostaurin] (first compound 0.006 µM, partner dose 0.08 µM), the cell count with WM115 stood at 75.4%; in the experiment with WM1716 it was 60.3%; in the experiment with WM1745 it was 72.8%; in the experiment with WM3526 it was 101%; in the experiment with WM3619, 85.7%; in the experiment on WM451Lu it was 96.3%.
Turning to `CC[C@]1(O)C[C@H]2CN(CCc3c([nH]c4ccccc34)[C@@](C(=O)OC)(c3cc4c(cc3OC)N(C=O)[C@H]3[C@@](O)(C(=O)OC)[C@H](OC(C)=O)[C@]5(CC)C=CCN6CC[C@]43[C@@H]65)C2)C1` [vincristine] + COc1cc2c(Oc3ccc4[nH]c(C)cc4c3F)ncnc2cc1OCCCN1CCCC1 [cediranib] (first compound 0.0001 µM, partner dose 0.4 µM), the cell count in the experiment with WM115 amounted to 59.1%; with WM1716, 58%; in the experiment on WM1745, 117%; in the experiment on WM3526 it was 85.8%; with WM3619 it was 105%; in the experiment on WM451Lu it was 107%.
Take `N#CC[C@H](C1CCCC1)n1cc(-c2ncnc3[nH]ccc23)cn1` [ruxolitinib] + Cn1cncc1[C@@](N)(c1ccc(Cl)cc1)c1ccc2c(c1)c(-c1cccc(Cl)c1)cc(=O)n2C [tipifarnib] (first compound 1 µM, partner dose 0.01 µM): the cell count in the experiment with WM115 stood at 97.5%; with WM1716, 83.8%; in the experiment with WM1745, 90.1%; in the experiment on WM3526, 94.1%; in the experiment on WM3619 it was 98.3%; with WM451Lu it was 72.3%.
On to `CC[C@]1(O)C[C@H]2CN(CCc3c([nH]c4ccccc34)[C@@](C(=O)OC)(c3cc4c(cc3OC)N(C=O)[C@H]3[C@@](O)(C(=O)OC)[C@H](OC(C)=O)[C@]5(CC)C=CCN6CC[C@]43[C@@H]65)C2)C1` [vincristine] + Cn1nnc2c(C(N)=O)ncn2c1=O [temozolomide] (first compound 0.0001 µM, partner dose 2 µM), for which the cell count in the experiment on WM115 was found to be 50.7%; with WM1716, 42.9%; in the experiment on WM1745 it was 94%; in the experiment with WM3526, 66.1%; in the experiment with WM3619, 59.9%; in the experiment on WM451Lu it was 52.8%.
For the compound `Cc1cc(Nc2cc(N3CCN(C)CC3)nc(Sc3ccc(NC(=O)C4CC4)cc3)n2)n[nH]1` [Tozasertib] + CC(C)(C)c1cnc(CSc2cnc(NC(=O)C3CCNCC3)s2)o1 [SNS-032] (first compound 0.006 µM, partner dose 0.01 µM), the cell count in the experiment on WM115 came to 83.4%; in the experiment with WM1716 it was 90.5%; in the experiment on WM1745, 101%; in the experiment on WM3526 it was 93.5%; with WM3619 it was 96.3%; with WM451Lu, 89.6%.
As to `N#CC[C@H](C1CCCC1)n1cc(-c2ncnc3[nH]ccc23)cn1` [ruxolitinib] + CO[C@H]1C[C@@H]2CC[C@@H](C)[C@@](O)(O2)C(=O)C(=O)N2CCCC[C@H]2C(=O)O[C@H]([C@H](C)C[C@@H]2CC[C@@H](OCCO)[C@H](OC)C2)CC(=O)[C@H](C)/C=C(\C)[C@@H](O)[C@@H](OC)C(=O)[C@H](C)C[C@H](C)/C=C/C=C/C=C/1C [everolimus] (first compound 1 µM, partner dose 0.02 µM), the cell count in the experiment with WM115 came to 89.8%; in the experiment on WM1716, 74.2%; in the experiment with WM1745, 81.4%; in the experiment with WM3526, 82.9%; in the experiment with WM3619 it was 74.5%; in the experiment with WM451Lu, 70.3%.
